Laboratory results reported in article PMC4336329 (PLoS ONE, 2015).
Screen size: about 310,000 compounds; about 14,000 (4.5%) showed an effect of 50% or more. The effect is printed as a negative number. The list shows a part of the results.

The compounds below were run against human ether-à-go-go-related gene (hERG) potassium channel (human, UniProt Q12809) (assay: primary screen, population patch clamp on CHO cells stably expressing hERG).
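Note: peak tail current of the secondary pulse compared with the same well before compound.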

human ether-à-go-go-related gene (hERG) potassium channel, sequence (Q12809 whole entry, looked up): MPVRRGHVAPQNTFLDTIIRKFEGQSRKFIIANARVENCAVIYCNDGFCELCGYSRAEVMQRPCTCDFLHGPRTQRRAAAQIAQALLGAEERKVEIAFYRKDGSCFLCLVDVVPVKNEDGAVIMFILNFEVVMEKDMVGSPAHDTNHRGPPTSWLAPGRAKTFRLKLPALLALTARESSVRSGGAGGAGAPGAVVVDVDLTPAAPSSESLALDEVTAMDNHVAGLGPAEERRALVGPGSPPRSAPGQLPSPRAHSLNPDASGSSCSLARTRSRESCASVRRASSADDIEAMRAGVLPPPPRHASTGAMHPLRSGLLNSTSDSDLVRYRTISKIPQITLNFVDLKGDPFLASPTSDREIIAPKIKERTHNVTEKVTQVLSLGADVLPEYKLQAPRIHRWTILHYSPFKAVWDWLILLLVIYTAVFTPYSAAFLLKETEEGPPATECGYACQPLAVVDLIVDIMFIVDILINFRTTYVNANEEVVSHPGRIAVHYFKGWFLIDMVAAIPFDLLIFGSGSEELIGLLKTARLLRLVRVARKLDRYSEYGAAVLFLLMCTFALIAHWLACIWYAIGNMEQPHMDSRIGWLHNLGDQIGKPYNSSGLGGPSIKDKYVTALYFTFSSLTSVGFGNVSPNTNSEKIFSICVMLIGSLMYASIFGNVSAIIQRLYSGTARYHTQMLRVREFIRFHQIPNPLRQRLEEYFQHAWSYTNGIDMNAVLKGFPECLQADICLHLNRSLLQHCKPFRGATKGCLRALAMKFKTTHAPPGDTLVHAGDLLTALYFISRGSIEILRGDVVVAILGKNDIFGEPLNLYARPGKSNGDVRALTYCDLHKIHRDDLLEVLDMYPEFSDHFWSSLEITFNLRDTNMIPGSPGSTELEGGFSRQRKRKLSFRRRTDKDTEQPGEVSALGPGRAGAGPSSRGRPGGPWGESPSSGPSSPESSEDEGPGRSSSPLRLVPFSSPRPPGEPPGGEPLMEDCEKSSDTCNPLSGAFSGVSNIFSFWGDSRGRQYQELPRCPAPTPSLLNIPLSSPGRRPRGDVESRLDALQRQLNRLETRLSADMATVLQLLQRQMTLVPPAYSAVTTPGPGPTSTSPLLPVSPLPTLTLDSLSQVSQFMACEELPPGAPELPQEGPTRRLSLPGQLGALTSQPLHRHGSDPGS

Row | Structure (SMILES) | hERG current change (%, negative = inhibition) at 10uM
1 | C=CCc1ccc(OCCCCNC2CCCC2)c(OC)c1.O=C(O)C(=O)O | -39.9%
2 | Oc1c(Br)cc(/C=N/NC(=S)NCC2CCCO2)cc1Br (centres unmarked) | 18.7%
3 | Cc1ccc(OCc2n[nH]c(=S)n2N)cc1C | 33.9%
4 | Cc1ccc2c(CC(=O)NCCc3ccc(S(N)(=O)=O)cc3)coc2c1 | -2.43%
5 | Cc1ccc(C)c(NS(=O)(=O)c2ccc(OCC(=O)NCc3ccccn3)cc2)c1 | -7.14%
6 | C#CCOCCOCCOCCNc1nc(N2CCN(C(=O)C([C@@H](C)CC)n3cc(C(N)Cc4ccc(O)cc4)nn3)CC2)nc(N2CCN(C(=O)[C@H](CCC(=O)O)n3cc(C(N)CO)nn3)CC2)n1.Cl (some centres unmarked) | 5.61%
7 | NNc1nnnc2c1sc1nc(N3CCOCC3)c3c(c12)CCCC3 | 5.3%
8 | CC1CC(C)CN(S(=O)(=O)CC23CCC(CC2=O)C3(C)C)C1 (centres unmarked) | -0.236%
9 | CCOCCCNC(=O)c1oc2ccc(S(=O)(=O)N3CCOCC3)cc2c1C | 17.9%
10 | CC1CN(C(=O)c2ccccc2C(=O)c2ncc[nH]2)CC(C)O1 (centres unmarked) | 9.31%
11 | O=C(c1c[nH]c(C(=O)C(Cl)(Cl)Cl)c1)c1ccc(F)cc1F | -12.3%
12 | COc1ccc(C2=NN(CCC(=O)NC3CCCCCC3)C(=O)CC2)cc1 | -15.1%
13 | Cl.NC(CC(=O)OC1CCCCC1)C(=O)OC1CCCCC1 (centres unmarked) | -0.88%
14 | Cc1nn(C)c(C)c1S(=O)(=O)N(CC(=O)NCCN1CCOCC1)c1ccc(C(C)C)cc1 | -2.41%
15 | COc1ccccc1CNC(=O)C1(C)Oc2cccnc2NC1=O (centres unmarked) | 9.69%
16 | O=c1c2ccccc2c(-c2ccccc2)nn1-c1ccc(Cl)c(Cl)c1 | 13.3%
17 | Cc1cc(C)c(S(=O)(=O)NCC2CCC(C(=O)NCc3ccc4c(c3)OCO4)CC2)c(C)c1 (centres unmarked) | -1.15%
18 | O=C(/C=C/c1ccc(Cl)cc1)NC(=S)N1C[C@H]2C[C@H](C1)c1cccc(=O)n1C2 | -53.1%
19 | COc1ccccc1CNC(=O)C1CCC(CNc2c(N3CCCCC3)c(=O)c2=O)CC1 (centres unmarked) | 7.49%
20 | COc1ccc(C(c2nnnn2C2CCCC2)N2CCC(C)CC2)c(OC)c1 (centres unmarked) | -18.7%
21 | CCOc1ccc(S(=O)(=O)NCc2ccc(OC)cc2)c2cccnc12 | -19.6%
22 | CCn1c(SCC(=O)NC(=O)Nc2ccc3c(c2)OCCO3)nnc1-c1cccs1 | -5.31%

Row | Structure (SMILES) | hERG current change (%, negative = inhibition) at 10uM
23 | COc1ccc(NC(=O)CSc2nnc(N)s2)c([N+](=O)[O-])c1 | 5.58%
24 | COc1ccc(CN2CC(=O)N(c3ccccc3C)C2=S)cc1OC | 20%
25 | Cc1ccc(S(=O)(=O)N(C)C(=O)NC(=O)NS(=O)(=O)c2ccccc2)cc1 | 12.7%
26 | Cc1cccc(NCC(=O)N/N=C\c2ccccn2)c1 | 2.54%
27 | Cc1cc(OCC(=O)Nc2ccccc2N2CCCC2)ccc1C(C)C | 10.9%
28 | CSCC(=O)N1CCCC(CO)(Cc2ccccc2C)C1 (centres unmarked) | -4.55%
29 | S=C1N(c2ccccc2)C(c2cccc3ccccc23)N2CCCN12 (centres unmarked) | -5.18%
30 | O=C(C1COc2ccccc2O1)N1CCN(c2ccccn2)CC1 (centres unmarked) | -26.7%
31 | COc1cccc(/C=N/NC(=O)c2c(C)nc3ccc(Br)cn23)c1O | 4.54%
32 | CC1=C(C)C(C)=C(C#N)C(=C(C#N)C#N)N1 | 4.18%
33 | CC(=O)Nc1ccc(C(=O)CSc2nccc(=O)[nH]2)cc1 | 22.2%
34 | COc1ccc(S(=O)(=O)Nc2ccc(N(C)C(C)=O)cc2)cc1 | 16.4%
35 | CCN(CC)CCNC(=O)C12CC3CC(C)(CC(C)(C3)C1)C2.Cl | -7.72%
36 | COCC(C)n1c(C)cc(C(=O)COC(=O)c2n[nH]c3ccccc23)c1C (centres unmarked) | -0.626%
37 | Cc1ccc2ncccc2c1NS(=O)(=O)c1ccccc1 | 13.5%
38 | O=C(NCc1ccc(N2CCCC2=O)cc1)C1CCC(=O)N(Cc2ccccc2F)C1 (centres unmarked) | -3.3%
39 | C/C=C\C=C/C(=O)Nc1cccc(C2=NOC3(C2)C[C@H](C(N)=O)N(C(=O)CC)C3)c1 (some centres unmarked) | -8.64%
40 | CC(C)CC(OC(=O)c1nsc(Cl)c1Cl)C(=O)NCC1CCCO1 (centres unmarked) | 18.8%
41 | COc1cccc(CNC(=O)[C@@H](C)N2C(=O)N3CCc4c([nH]c5ccc(OC)cc45)C3(C)C2=O)c1 (some centres unmarked) | 9.17%
42 | CC(=O)Nc1cccc(-c2cnc3ccccc3n2)c1 | -9.95%
43 | COc1cccc(CNn2cnnc2)c1OCc1ccccc1F | 6.85%
44 | CCCNC(=O)c1ccc(CN2CCc3ccccc3C2)cc1 | -37.3%

Row | Structure (SMILES) | hERG current change (%, negative = inhibition) at 10uM
45 | CCc1ccc(NC(=O)COc2coc(CN3CCN(c4ccccc4)CC3)cc2=O)cc1 | 12.3%
46 | COc1ccc(C(CCN)Cc2ccccc2)cc1 (centres unmarked) | -1.36%
47 | Cc1cccc2c1CC(C)(C)NC2=C(C#N)C#N | 14.3%
48 | Cc1ccc(OCCC(=O)OCc2csc(CC(=O)Nc3ccccc3C)n2)cc1 | 8.22%
49 | Cc1ccc(S(=O)(=O)N2CCC(C(=O)OCC(=O)N3CCCC(C)C3)CC2)cc1C (centres unmarked) | -34.3%
50 | Cc1ccc(NC(=O)c2ccc3c(c2)S(=O)(=O)c2ccccc2C3=O)cc1S(=O)(=O)N1CCOCC1 | 7.63%
51 | Cc1[nH]n(-c2nc(-c3cccc([N+](=O)[O-])c3)cs2)c(=O)c1C | 14.9%
52 | O=C(Nc1ccc(Cl)c(Cl)c1)Nc1ccc([N+](=O)[O-])cn1 | 22.8%
53 | Cc1ccccc1NC(=S)NC(=O)c1cncc(Br)c1 | 13.2%
54 | CC(/C=C/c1ccccc1)=N\NC(=O)c1ccc(Br)cc1 | -4.99%
55 | c1ccn2cc(CSc3nnc4ccccn34)nc2c1 | 12.8%
56 | COc1cccc(N2CCN(C(=O)c3cc4c(s3)-c3ccccc3OC4)CC2)c1 | -15.3%
57 | O=C(NC1=NCCS1)c1cc(-c2ccc(F)cc2)nc2ccccc12 | 7.49%
58 | Cc1nn2c(Nc3ccc(F)cc3)c3c(nc2c1-c1ccccc1)CCC3 | 11.9%
59 | O=C(Cc1ccccc1)N1CCN(Cc2cccnc2)CC1.O=C(O)C(=O)O | 4.67%
60 | CO.Cc1ccc(C2=NCN(c3ccc(C(=O)O)cc3)C(=S)N2)cc1 | 15.8%
61 | CCCN(C(=O)CCNC(=O)Cn1cnc2ccccc2c1=O)c1cccc(C)c1 | 11.4%
62 | COc1ccc(-c2cc(-c3ccc(OC)c(OC)c3)n[nH]2)c(O)c1 | 2.38%
63 | Cc1cc(C)c2nc(/N=C(\N)NC(=O)c3ccccc3)nc(C)c2c1 | 6.93%
64 | CC(C)Cn1c(SCC#N)nc2ccccc2c1=O | 6.21%
65 | O=C(CCn1ccnc1)Nc1ccc2ccccc2c1 | -2.09%
66 | O=C(OCC(=O)N1CCN(C(=O)c2ccco2)CC1)C1=COCCO1 | 38.6%

Row | Structure (SMILES) | hERG current change (%, negative = inhibition) at 10uM
67 | Cc1cccc2sc(NC(=O)CSc3nc4ccccc4o3)nc12 | -9.76%
68 | CC1(C)Oc2ccc3ccc(=O)oc3c2C[C@H]1O | 9.21%
69 | COc1ccc(Cc2nnc(NC(=O)Nc3ccc(F)cc3)s2)cc1 | 22.7%
70 | COC(=O)[C@]12OC[C@]34C([C@@H](O)[C@@H]1O)[C@]1(C)CC(=O)C(O)=C(C)[C@@H]1C[C@H]3OC(=O)[C@H](O)[C@@H]24 (some centres unmarked) | 18%
71 | CC(C)C(c1nnnn1C(C)(C)C)N1CCOCC1 (centres unmarked) | 5.37%
72 | CCC(=O)c1coc2ccc(O)cc12 | 7.22%
73 | COc1ccc(/C(C)=N/Nc2ccc(C(=O)O)cc2)cc1OC.O=S(=O)(O)O | 5.63%
74 | Cc1ccc(N2CC(NS(=O)(=O)c3cc(F)ccc3F)CC2=O)cc1C (centres unmarked) | -6.74%
75 | O=C(CNC(=O)c1cccs1)c1ccc(Br)cc1 | 12.2%
76 | CC(=O)c1c(COC(=O)c2ccccc2Cl)nc2ccccc2[n+]1[O-] | -8.73%
77 | CC(=O)Nc1ccc(NC(=O)c2ccc(COc3ccc4c(C)cc(=O)oc4c3)cc2)cc1 | 10.6%
78 | C=CCN1C(=O)CS/C1=N\S(=O)(=O)c1ccc(Cl)cc1 | 2.52%
79 | COc1ccc(NC(=O)C2CCCN(S(=O)(=O)c3cccs3)C2)cc1OC (centres unmarked) | 1.68%
80 | O=C(Nc1cccc2cccnc12)c1cccc(Cl)c1 | 13.8%
81 | C[C@H]1CC[C@@]2(C)[C@@H](CC[C@@H]3[C@@H]2CC[C@]2(C)[C@@H](O)CC[C@@H]32)C1 | 2.99%
82 | O=C(Nc1cccc(Cl)c1Cl)C1CCN(c2ncccn2)CC1 | 15.3%
83 | N#C/C(C(=O)N1CCOCC1)=c1/s/c(=C\c2ccccn2)c(=O)n1-c1ccccc1 | 17.6%
84 | COc1ccc(N2CCN(C(=O)CSc3nnc(-c4ccc5[nH]c(C)c(C)c5c4)o3)CC2)cc1 | 9.37%
85 | CCOc1ccc(S(=O)(=O)N2CCCCC2)cc1NC(=O)C1CCC1 | 0.496%
86 | COc1ccc(-c2nc(CSCC(=O)NCc3ccc4c(c3)OCO4)c(C)o2)cc1 | -6.05%
